Data: patent publication US12605367B2, “Methods of treatment and/or prevention of disorders and symptoms related to BKCa and/or SK channelophathies” (UNIVERSITE DE BORDEAUX, priority 2019, dated 2026)

Key:
Fmr1-KO mice [1] = test system: Fmr1-KO mice
Method: (§1) Open field and acoustic startle were assessed following the same procedures described in Example 2.
Open field test: this 5-min test was used to assess locomotor activity and exploration in laboratory mice, as described in details for the Example 2.

Fmr1-KO mice [2] = test system: Fmr1-KO mice; remark: listed apart in the source
Method: as §1

Fmr1-KO mice [3] = conditions: chronic: daily i.p. 10 days, CHLOR 5 mg/kg or MET 200 mg/kg; tested 24 hs after last injection
WT mice [4] = test system: WT mice
WT mice [5] = conditions: acetazolamide 10, 20, 40 mg/kg acute i.p., 1 hour before tests
[6] = chronic: daily i.p. 10 days, CHLOR 5 mg/kg or MET 200 mg/kg, tested 24 hs after last injection

Structure (SMILES)	hyperactivity of Fmr1-KO mice in open field (Fmr1-KO mice [1]; [6])	exaggerated acoustic response of KO mice (Fmr1-KO mice [2]; [6])	reduced social interaction of Fmr1-KO mice (Fmr1-KO mice [3])	higher open field activity of KO versus WT mice (genotype effect) after treatment (Fmr1-KO mice [1]; single i.p. injection 1 hour before test, chlorzoxazone 5 mg/kg or acetazolamide 20 mg/kg (Examples 3, 5))	higher reactivity of KO mice to sensory stimulus in acoustic startle test after treatment (Fmr1-KO mice [2]; single i.p. injection 1 hour before tests, chlorzoxazone 5 mg/kg or acetazolamide 20 mg/kg (Examples 3, 5))	locomotion in the open field (WT mice [4]; WT mice, acetazolamide 40 mg/kg acute i.p., effect not statistically significant)	highest dose having no effect on WT mice (WT mice [4]; open field and acoustic startle tests, acute i.p., 1 hour before tests) [mg/kg]	effects in the acoustic startle test (WT mice [5])
CN(C)C(=N)N=C(N)N [Metformin]	not attenuated	seemed slightly less pronounced	not attenuated					
CC(=O)Nc1nnc(S(N)(=O)=O)s1 [acetazolamide, N-(5-sulfamoyl-1,3,4-thiadiazol-2-yl) acetamide]				this effect disappeared	eliminated	seemed to induce a reduction in the locomotion	20	No effects were observed
